# In all, about 300,000 compounds went through this assay and about 1,200 (0.4%) were called active. This list was built around the results that the source calls inconclusive (neither active nor inactive); the mix of calls is not that of the screen. The call rests on the fitted dose curve; in most records, active means well fitted inhibition curve with a large enough effect; inconclusive means small, poorly fitted or top-dose-only effect, or another doubt; inactive means no such curve, though single readings can be large or run the other way. A potency beside an inconclusive call is a rough fit, not a confirmed value.
# Target: Lysosomal alpha-glucosidase (Homo sapiens) (UniProt P10253)
# Experiment: qHTS Assay for Inhibitors and Activators of Human alpha-Glucosidase Cleavage of Glycogen;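 on activity change, negative = inhibition: 0% = full enzyme reaction and -100% = no-enzyme basal signal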
# Conditions: recombinant GAA, glycogen substrate, Amplex Red glucose oxidase fluorescence; activity change, negative = inhibition: at 76.4 µM (top of the series) unless noted
# Procedure, shortened: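 qHTS, 1536-well; enzyme 4 nM final; cpd up to 77 uM; substrate bovine liver glycogen 30 ug; 50 mM citrate/phosphate pH 5.0, 0.01% Tween-20; 37 C, 40 min; Amplex Red detection 45 min RT; Hill fit → AC50.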
# Potency means the concentration at half of the fitted maximal effect.
Structure (SMILES),Potency,"activity change, negative = inhibition"
CNC(=O)COC(=O)c1ccc2c(c1)NC(=O)C1CCCN21 (centres undefined),"inconclusive: 8.91 µM [inhibitor, partial curve]",
CCCSC1=C(C#N)C(c2ccccc2C)C(C(=O)OC)C(=O)N1 (centres undefined),"inconclusive: 35.2 µM [inhibitor, partial curve]",
C/C(=N\Nc1ccc([N+](=O)[O-])cc1)c1ccco1,"inconclusive: 3.98 µM [inhibitor, partial curve]",
COc1ccc(NC(=S)N(CCc2c(C)[nH]c3ccccc23)Cc2ccco2)cc1,"inconclusive: 35.5 µM [inhibitor, partial curve]",
Cc1ccc(S(=O)(=O)Nc2nc(C)c(NC(=O)OCCCl)s2)cc1,active: 22.2 µM,
O=C1CC(Cc2ccccc2)C(=O)N1Cc1ccco1 (centres undefined),,inactive: 8.69%
O=C(Nc1cccs1)Nc1c(F)c(F)cc(F)c1F,"inconclusive: 28.2 µM [inhibitor, single point]",
CCOC(=O)c1ccc(N2C(=O)c3[nH]nc(-c4ccc(C)cc4)c3C2c2ccc(O)c(OCC)c2)cc1 (centres undefined),,inactive: 0.44% [at 76.3 µM]
COc1ccc(F)cc1C(=O)C1CCCN(Cc2cccn2-c2cccnc2)C1 (centres undefined),,inactive: 19.4%
CCc1ccc2c(c1)C(C)=CC(C)(C)N2,"inconclusive: 31.4 µM [inhibitor, single point]",
COc1ccc(NC(=S)N2CCN(S(=O)(=O)c3ccc(F)cc3)CC2)cc1OC,"inconclusive: 28.2 µM [inhibitor, partial curve]",
Cc1cccc2c1-c1sc(C(=O)N3CCN(c4ccccc4)CC3)cc1CO2,,inactive: 4.42% [at 76.3 µM]
CN(C)c1ccc(CN(C(=O)c2ccco2)C2CCS(=O)(=O)C2)cc1 (centres undefined),"inconclusive: 12.5 µM [inhibitor, partial curve]",
C/C(Cn1nnc([N+](=O)[O-])n1)=N\NC(=O)c1ccc(O)cc1O,"inconclusive: 39.8 µM [inhibitor, single point]",
COc1cc(/C=C2/C(=O)NN(c3cccc(F)c3)C2=O)ccc1OC(=O)c1ccco1,"inconclusive: 31.6 µM [inhibitor, partial curve]",
COc1ccc(OC)c(N2C(N)=C(C#N)C(c3ccc(OC)c(O)c3)C3=C2CC(C)(C)CC3=O)c1 (centres undefined),"inconclusive: 3.16 µM [inhibitor, partial curve, poor fit]",
CCCCn1c(=O)cc(O)c2ccccc21,,inactive: 1.5%
COc1ccc(OC)c(Cc2nnc(CCC(=O)NC(C3CC3)C3CC3)o2)c1,,inactive: 11.5%
CCN1CCN(c2cc(C)c3cc(NC(=S)N4CCCC(C)C4)ccc3n2)CC1 (centres undefined),"inconclusive: 20 µM [inhibitor, partial curve]",

# From PubChem BioAssay AID2100 (National Center for Advancing Translational Sciences (NCATS), 2009)
